Experimental data from ChEMBL document CHEMBL4888484, “Replenishing the malaria drug discovery pipeline: Screening and hit evaluation of the MMV Hit Generation Library 1 (HGL1) against asexual blood stage Plasmodium falciparum ,using a nano luciferase reporter read-out” (2022).
Among all 150,000 compounds or so, about 540 (0.36%) showed an effect of 50% or more. The list shows a part of the results.

test system: Plasmodium falciparum; experiment: Primary screen in NF54 nanoGlo assay, in single point, at 2uM, 72h; a lower Z score goes with more inhibition; assay type: functional, Erythrocyte; conditions: timepoint 72 hour

Question: Which “% Inhibition” value does the source give for `CN(CCCC1CCCC1)c1nccnc1C(=O)O` here?
Answer: The value was -13%.

Question: What about the Z score of the same molecule?
Answer: Its Z score is 1.85.

Question: `COc1ccccc1C(=O)Nc1ccc2c(c1)NC(=O)C[C@H]2c1ccc(O)cc1` was tested. Which “% Inhibition” value did it give?
Answer: Its value is 0%.

Question: What about the Z score of the same molecule?
Answer: Its Z score is 0.

Question: `COc1cccc(NC(=O)N2CC[C@H]3CC(=O)Nc4ccc(-c5cnn(C)c5)cc4OCC[C@H]3C2)c1` was tested. Which “% Inhibition” value did it give?
Answer: The value was -2%.

Question: What about the Z score of the same molecule?
Answer: The Z score was 0.26.

Question: Which “% Inhibition” value does the source give for `COCC1(NC(=O)c2ccc(-c3cnccc3N)cc2)CCCC1` here?
Answer: Its value is -5%.

Question: And the Z score?
Answer: Its Z score is 0.82.

Question: Which “% Inhibition” value does the source give for `CS(=O)(=O)c1ccc(N2CC[C@]3(C2)CC3(F)F)cc1` here?
Answer: Its value is 4%.

Question: What about the Z score of the same molecule?
Answer: The Z score was -0.6.

Question: Which “% Inhibition” value does the source give for `CCn1nccc1C(=O)NCCc1ncc(C)n1C1CCCCCC1` here?
Answer: Its value is -6%.

Question: And the Z score?
Answer: The Z score was 0.85.

Question: With `COc1ccc(CCc2n[nH]c(NC(=O)c3cccnc3)n2)cc1OC` as the molecule, how does the “% Inhibition” value read?
Answer: The value was 28%.

Question: What about the Z score of the same molecule?
Answer: Its Z score is -3.51.

Question: Which “% Inhibition” value does the source give for `C#CC[C@H]1CCCN(c2nnnn2CCN2C(=O)CNC2=O)C1` here?
Answer: The value was -13%.

Question: What about the Z score of the same molecule?
Answer: Its Z score is 1.59.

Question: For `O=C(NCc1cccnc1)[C@]1(F)CCCN(S(=O)(=O)c2ccccc2F)C1`, which “% Inhibition” value is on record?
Answer: Its value is -31%.

Question: What about the Z score of the same molecule?
Answer: The Z score was 2.72.

Question: With `O=C(NCC(=O)N1CCCC1)NCc1ccc(Br)cc1` as the molecule, how does the “% Inhibition” value read?
Answer: Its value is 4%.

Question: What about the Z score of the same molecule?
Answer: Its Z score is -0.59.

Question: Which results are given for `O=C(CCC(=O)c1ccc2c(c1)OCCCO2)Nc1ncccc1O`?
Answer: % Inhibition: -12%; Z score: 1.89

Question: Which “% Inhibition” value does the source give for `CN(CCOC(=O)c1cc[nH]n1)c1ccccc1` here?
Answer: The value was -9%.

Question: What about the Z score of the same molecule?
Answer: Its Z score is 1.04.

Question: How did the “% Inhibition” value turn out when `C[C@H]1CCOCCN1C(=O)Nc1nc(C2CCC2)cs1` was run?
Answer: The value was -5%.

Question: What about the Z score of the same molecule?
Answer: The Z score was 0.47.

Question: `O=C(NCCn1c(=O)[nH]c2ccsc2c1=O)c1ccccc1Cl` was tested. Which “% Inhibition” value did it give?
Answer: The value was -10%.

Question: And the Z score?
Answer: Its Z score is 1.7.

Question: How did the “% Inhibition” value turn out when `CN(c1ccccc1C(=O)O)S(=O)(=O)c1cccc2nsnc12` was run?
Answer: Its value is -4%.

Question: What about the Z score of the same molecule?
Answer: Its Z score is 0.56.

Question: What does the source list for `Cc1nc(C(=O)N[C@@H](C)Cn2cncn2)cs1`?
Answer: % Inhibition: -10%; Z score: 2.07

Question: What does the source list for `COc1ccc(NC(=O)C2(NC(=O)[C@H](C)Oc3ccc(F)c(F)c3)CCCC2)cc1OC`?
Answer: % Inhibition: -9%; Z score: 1.46

Question: What does the source list for `CC(=O)Nc1ccc(CN[C@H]2C[C@H](c3ccc(Cl)c(Cl)c3)C2)cc1`?
Answer: % Inhibition: -3%; Z score: 0.4

Question: Which “% Inhibition” value does the source give for `Cc1n[nH]c([C@@H]2CN(C(=O)c3cccc4[nH]ccc34)C[C@H]2C(N)=O)n1` here?
Answer: The value was -7%.

Question: And the Z score?
Answer: Its Z score is 1.16.

Question: Which results are given for `CN(c1cccc(NC(=O)Cc2ccc(Cl)cc2F)c1)S(C)(=O)=O`?
Answer: % Inhibition: -23%; Z score: 2.01

Question: For `O=C(C1CCN(C(=O)[C@H]2CCC(=O)N(C3CCCCCC3)C2)CC1)N1CCCC1`, which “% Inhibition” value is on record?
Answer: Its value is -3%.

Question: And the Z score?
Answer: Its Z score is 0.56.

Question: For `CCN(c1ccc(C(=O)N[C@H](C)C(=O)NCCN2CCCCC2)cc1)C(C)C`, which “% Inhibition” value is on record?
Answer: The value was -4%.

Question: And the Z score?
Answer: Its Z score is 0.74.

Question: How did the “% Inhibition” value turn out when `CCCCn1ccnc1C(=O)c1ccc(S(=O)(=O)N2CCOCC2)cc1` was run?
Answer: The value was -7%.

Question: What about the Z score of the same molecule?
Answer: Its Z score is 1.11.

Question: Which “% Inhibition” value does the source give for `CC[C@H]1CC[C@H](C(=O)Nc2cnn(CCOC)c2)CC1` here?
Answer: The value was 2%.

Question: What about the Z score of the same molecule?
Answer: The Z score was -0.22.

Question: Which “% Inhibition” value does the source give for `Cc1cc(C)nc(NC(=O)c2cccc(C(=O)Nc3cc(C)cc(C)n3)n2)c1` here?
Answer: Its value is -4%.

Question: What about the Z score of the same molecule?
Answer: The Z score was 0.42.

Question: What does the source list for `CN(Cc1noc(C2CC2)n1)[C@@H](/C=C/c1ccccc1)C(=O)O`?
Answer: % Inhibition: 2%; Z score: -0.42

Question: `CCCOc1c(CN(C)[C@@H]2CCC[C@H]2O)cccc1OCC` was tested. Which “% Inhibition” value did it give?
Answer: Its value is -5%.

Question: And the Z score?
Answer: Its Z score is 0.79.

Question: `Cc1ccc(-c2nc(-c3ccc4c(c3)ncn4CCN3CCOCC3)no2)c(C)c1` was tested. Which “% Inhibition” value did it give?
Answer: The value was -3%.

Question: And the Z score?
Answer: Its Z score is 0.49.

Question: How did the “% Inhibition” value turn out when `O=C1CN2C(=O)[C@]3(CCN(CC4CC4)[C@H]3c3cccc(c3)OCCCN1)c1ccccc12` was run?
Answer: The value was -24%.

Question: And the Z score?
Answer: Its Z score is 3.01.

Question: How did the “% Inhibition” value turn out when `O=C(c1cnccn1)N1CC[C@H](c2nc3ccccc3o2)C1` was run?
Answer: The value was 7%.

Question: What about the Z score of the same molecule?
Answer: The Z score was -0.91.

Question: Which results are given for `CC(C)(C)OC(=O)N1CC2CCC(NC(=O)CC#N)CC2C1` (stereo unspecified)?
Answer: % Inhibition: -21%; Z score: 2.79

Question: Which results are given for `CN(CC1CCOCC1)C(=O)CC1CCCCC1`?
Answer: % Inhibition: -1%; Z score: 0.22

Question: With `O=C(O)c1csc(S(=O)(=O)Nc2ccc(-n3cccn3)c(Cl)c2)c1` as the molecule, how does the “% Inhibition” value read?
Answer: The value was -1%.

Question: What about the Z score of the same molecule?
Answer: The Z score was 0.19.

Question: With `CC(=O)Nc1ccc(C2OC(=O)N(Cc3cccc(F)c3)C2C(=O)NCC2CCCO2)cc1` (stereo unspecified) as the molecule, how does the “% Inhibition” value read?
Answer: Its value is -9%.

Question: What about the Z score of the same molecule?
Answer: Its Z score is 1.12.

Question: What does the source list for `Cc1ccc(S(=O)(=O)NCC(C)C)cc1C`?
Answer: % Inhibition: 1%; Z score: -0.18

Question: `O=C(O)[C@H]1CC(=O)N(c2ccc3nc(-c4cccc(F)c4)oc3c2)C1` was tested. Which “% Inhibition” value did it give?
Answer: The value was 33%.

Question: And the Z score?
Answer: The Z score was -4.8.

Question: How did the “% Inhibition” value turn out when `CCc1ccc(N2C[C@@H](c3nc(COc4cccc(F)c4)no3)CC2=O)cc1` was run?
Answer: Its value is -8%.

Question: What about the Z score of the same molecule?
Answer: The Z score was 1.15.

Question: Which results are given for `COc1cccc2c1Oc1c(c(=O)n(-c3ccccc3)n1CC(=O)Nc1ccc(C)cc1Cl)C2`?
Answer: % Inhibition: 2%; Z score: -0.34

Question: How did the “% Inhibition” value turn out when `CCc1noc(CCNC(=O)Nc2cc(C)nn2C2CCCCC2)n1` was run?
Answer: The value was -3%.

Question: And the Z score?
Answer: Its Z score is 0.5.

Question: Which “% Inhibition” value does the source give for `O=C(Nc1cc(S(=O)(=O)N2CCOCC2)ccc1Oc1ccc(F)cc1)c1ccnc2ncnn12` here?
Answer: Its value is -18%.

Question: What about the Z score of the same molecule?
Answer: The Z score was 1.56.

Question: What does the source list for `c1ccc(-n2nnc3c2CCNC3)cc1`?
Answer: % Inhibition: -12%; Z score: 1.33

Question: With `CCn1ccc2ccc(CCC(=O)NC(C)(C)C)cc21` as the molecule, how does the “% Inhibition” value read?
Answer: Its value is 2%.

Question: And the Z score?
Answer: Its Z score is -0.21.

Question: `NS(=O)(=O)c1ccc(CCN[C@H]2CC(=O)N(CCc3ccccc3)C2=O)cc1` was tested. Which “% Inhibition” value did it give?
Answer: Its value is -9%.

Question: And the Z score?
Answer: Its Z score is 1.57.

Question: With `CC1(C)NC(=O)N(CCN2CCCCCC2)C1=O` as the molecule, how does the “% Inhibition” value read?
Answer: The value was 4%.

Question: And the Z score?
Answer: The Z score was -0.75.

Question: Which results are given for `Cc1nn(C)c2nc(N3CCN(CCOc4ccccc4)CC3)sc12`?
Answer: % Inhibition: -13%; Z score: 1.27

Question: For `O=C(NCc1ccc(N2CCOCC2)cc1)c1cc[nH]c1[C@H]1CCCNC1`, which “% Inhibition” value is on record?
Answer: The value was -16%.

Question: And the Z score?
Answer: Its Z score is 1.82.

Question: For `CCn1cc(S(=O)(=O)N[C@H]2CCOC[C@@H]2OCC2CC2)cn1`, which “% Inhibition” value is on record?
Answer: The value was -4%.

Question: What about the Z score of the same molecule?
Answer: The Z score was 0.75.

Question: Which “% Inhibition” value does the source give for `C#CCNC(=O)C[C@H]1CCCN1C(=O)OC(C)(C)C` here?
Answer: Its value is -6%.

Question: And the Z score?
Answer: The Z score was 1.24.

Question: With `COc1ccc([C@@]2(C)NC(=O)N(CC(=O)N(c3ccccc3)C(C)C)C2=O)cc1OC` as the molecule, how does the “% Inhibition” value read?
Answer: The value was -11%.

Question: What about the Z score of the same molecule?
Answer: Its Z score is 1.16.

Question: How did the “% Inhibition” value turn out when `Cc1ncc(C(=O)Nc2ccc(-n3nn[nH]c3=O)cc2)s1` was run?
Answer: Its value is 3%.

Question: And the Z score?
Answer: Its Z score is -0.42.

Question: With `Cc1cc(OCC(=O)NC(N)=O)ccc1N` as the molecule, how does the “% Inhibition” value read?
Answer: The value was 29%.

Question: What about the Z score of the same molecule?
Answer: Its Z score is -3.23.

Question: For `CCc1nc(C)c(CC(=O)N2CCN(c3ccccc3C)C[C@@H]2C)c(=O)[nH]1`, which “% Inhibition” value is on record?
Answer: Its value is -10%.

Question: And the Z score?
Answer: Its Z score is 0.9.

Question: Which results are given for `Cc1oc(-c2ccno2)cc1S(=O)(=O)N1CCCc2ccccc21`?
Answer: % Inhibition: -6%; Z score: 0.7
